PubChem BioAssay AID1768 (National Center for Advancing Translational Sciences (NCATS), 2009)
The whole screen tested about 270,000 compounds, of which about 620 (0.23%) were called active. The inconclusive results got no clear call from the source; some entries with a clear call stand among them for comparison. The call rests on the fitted dose curve; in most records, active means well fitted inhibition curve with a large enough effect in the polarisation, with a control signal flat (not every such curve was filed as active); inconclusive means small, poorly fitted or top-dose-only effect, or effect the other way, or a change in a side signal; inactive means no such curve, though single readings can be large or run the other way; the % refers to the polarisation. Potencies beside an inconclusive call are fits to weak or partial responses and may not hold up. “Side channel” marks fits to a control or component signal instead of the main read-out.

These molecules were tested against Menin (Homo sapiens) (UniProt O00255) (assay: qHTS Assay for Inhibitors Targeting the Menin-MLL Interaction in MLL Related Leukemias: Competition With Texas Red Labeled MLL-derived Mutant Peptide). Conditions: fluorescence polarization; FP activity change, negative = inhibition: at 61.6 µM (top of the series).
Potency means the concentration at half of the fitted maximal effect; tags describe the fitted curve by direction and shape or compound fluorescence and quenching.
Wherever FP activity change, negative = inhibition is given: % of control where 0% means no effect.

UniProt O00255, sequence (O00255 whole entry, looked up): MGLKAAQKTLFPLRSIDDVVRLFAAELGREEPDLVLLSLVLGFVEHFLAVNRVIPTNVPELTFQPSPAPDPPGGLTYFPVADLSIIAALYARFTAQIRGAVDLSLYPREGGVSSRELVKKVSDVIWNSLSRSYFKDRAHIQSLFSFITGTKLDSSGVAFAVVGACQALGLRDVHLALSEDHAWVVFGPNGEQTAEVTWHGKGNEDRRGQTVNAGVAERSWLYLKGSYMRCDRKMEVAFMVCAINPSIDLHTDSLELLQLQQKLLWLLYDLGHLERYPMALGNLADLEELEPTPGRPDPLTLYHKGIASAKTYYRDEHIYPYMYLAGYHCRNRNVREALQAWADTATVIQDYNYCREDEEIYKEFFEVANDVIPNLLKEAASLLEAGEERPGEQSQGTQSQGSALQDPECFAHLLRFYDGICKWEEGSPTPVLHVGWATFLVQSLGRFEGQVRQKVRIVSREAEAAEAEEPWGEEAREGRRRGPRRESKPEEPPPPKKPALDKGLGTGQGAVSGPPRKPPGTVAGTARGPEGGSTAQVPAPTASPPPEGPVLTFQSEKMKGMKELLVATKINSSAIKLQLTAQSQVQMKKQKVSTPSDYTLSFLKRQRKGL

Structure (SMILES) | Potency | FP activity change, negative = inhibition
CCn1c2ccccc2c2cc(/C=N/NC(=O)c3ccc(O)cc3)ccc21 | inconclusive: 8.91 µM [quencher, side channel, full curve, poor fit] | 
Nc1cccn2c(-c3ccc(Cl)cc3)cnc12 | inconclusive: 11.2 µM [quencher, side channel, partial curve] | 
O=C(NCCc1nc2ccccc2[nH]1)/C(=C/c1ccc2c(c1)OCO2)NC(=O)c1ccccc1Cl |  | inactive: -5.26%
CCOC(=O)c1sc(-c2ccc(Br)cc2)cc1N | inconclusive: 31.6 µM [quencher, side channel, single point] | 
COc1ccc(CC(=O)Nc2nnc(-c3cccc([N+](=O)[O-])c3)s2)cc1 |  | inactive: 18.5%
O=C(CSc1nnc(NC(=O)C2CC(=O)N(c3ccc(F)cc3)C2)s1)NCC1CCCO1 (stereo not given) | inconclusive: 22.4 µM [quencher, side channel, single point] | 
CSc1nc(N)nc(SC2C=CCCC2)c1C#N (stereo not given) | inconclusive: 11.2 µM [inhibitor, partial curve] | 
CC1Cc2ccccc2N1C(=O)Cn1c(=O)oc2cc(S(=O)(=O)N3CCCCC3)ccc21 (stereo not given) | inconclusive: 14.1 µM [fluorescent, side channel, partial curve] | 
COc1cc2c(cc1OC)/C(=C/C(=O)c1cccc([N+](=O)[O-])c1)NCC2 | inconclusive: 20 µM [quencher, side channel, single point] | 
CCCCCCCCCCCCCCCC(=O)N[C@@H](COP(=O)(O)O)C(=O)O | inconclusive: 31.6 µM [quencher, side channel, single point] | 
O=C1NN(c2cccc(Br)c2)C(=O)/C1=C\c1ccccc1 | inconclusive: 35.5 µM [quencher, side channel, single point] | 
CCOc1cc(C(=O)Nc2nnc(CC)s2)ccc1OCC(=O)N1CCOCC1 | inconclusive: 25.1 µM [inhibitor, single point] | 
CCn1c(SCC(=O)Nc2nccs2)nnc1-c1ccco1 | inconclusive: 39.8 µM [inhibitor, single point] | 
CN(CCCNS(=O)(=O)c1cccc2cccnc12)Cc1ccccc1 | inconclusive: 20 µM [inhibitor, single point] | 
CCCc1cc(=O)[nH]c(SCC(=O)c2cc(C)n(CCC)c2C)n1 | inconclusive: 6.31 µM [inhibitor, single point] | 
CC(=O)NC(=S)Nc1ccc(N2CCOCC2)c(S(=O)(=O)Nc2cc(Cl)ccc2Cl)c1 |  | inactive: 33%
O=C(Nc1ccc(Cl)cc1)c1ccc(OC2CSC2)cc1 | inconclusive: 15.8 µM [inhibitor, partial curve] | 
COc1ccc(-c2nnc(Nc3nc4c(OC)cccc4s3)o2)cc1 |  | inactive: 15.8%
COc1ccc(-n2c(-c3ccccc3)cc3c2CCCC3=O)cc1 | inconclusive: 44.7 µM [inhibitor, partial curve] | 
O=C(NCc1ccc(Cl)cc1)c1cc(-c2cccs2)on1 | active: 28.2 µM | 

Structure (SMILES) | Potency | FP activity change, negative = inhibition
Cc1[nH]n(C(N)=S)c(=O)c1N=Nc1cc(-c2ccc(Br)cc2)[nH]n1 | inconclusive: 4.47 µM [quencher, side channel, full curve] | 
COC(=O)c1ccc(NC(=O)C2CC(=O)N(c3cc(C)ccc3C)C2)cc1 (stereo not given) |  | inactive: 14.2%
O=[N+]([O-])c1cccc(/C=N/n2c(COc3ccccc3)n[nH]c2=S)c1 | inconclusive: 35.5 µM [quencher, side channel, partial curve] | 
CS(=O)(=O)N(CC(=O)N/N=C/c1cc2c(cc1Br)OCO2)c1ccccc1Br | inconclusive: 17.8 µM [inhibitor, single point] | 
CCc1nc(Nc2ccc(N3CCN(C(C)=O)CC3)cc2)c2oc3ccccc3c2n1 | inconclusive: 5.01 µM [quencher, side channel, partial curve] | 
Cc1ccc(NS(=O)(=O)c2cc(Br)cnc2N)cc1C | inconclusive: 8.91 µM [quencher, side channel, partial curve] | 
CCOC(CNC(=O)c1ccc2c(c1)ncn2-c1ccc(F)c(F)c1)OCC | inconclusive: 3.98 µM [fluorescent, side channel, full curve] | 
O=C(Cc1nnc(NC(=O)c2ccccc2)s1)N/N=C/c1ccc(O)cc1 | inconclusive: 28.2 µM [inhibitor, single point] | 
CCN(C(=O)CSc1nnc(-c2ccccc2)o1)c1c(N)n(Cc2ccccc2)c(=O)[nH]c1=O | inconclusive: 11.2 µM [inhibitor, full curve, poor fit] | 
Cc1nn(CCC(=O)N2CCN(S(=O)(=O)c3ccc(Cl)cc3)CC2)c(C)c1C | inconclusive: 7.08 µM [quencher, side channel, full curve] | 
O/C=c1\ccc2cccc3nc(C(F)(F)F)nc1c23 | inconclusive: 4.47 µM [quencher, side channel, full curve] | 
CCOc1ccc(-c2nnc(-c3ccco3)o2)cc1OCC |  | inactive: -19.9%
CCN1CCN(CCCOc2ccccc2-c2ccccc2)CC1 | inconclusive: 31.6 µM [inhibitor, partial curve] | 
O=c1cc(CO)occ1OCc1cccc(F)c1 | inconclusive: 0.708 µM [inhibitor, partial curve, poor fit] | 
O=C(NCCCN1CCCC1)c1ccc2c(Cl)c3c(nc2c1)CCCC3 | inconclusive: 8.91 µM [fluorescent, side channel, partial curve] | 
O=C(OCC(=O)N1N=C(c2ccc(Cl)cc2)CC1c1ccco1)c1ccccc1O (stereo not given) |  | inactive: -2.54%
COCCn1c(=O)cnc2cnc(N3CCNCC3)nc21 |  | inactive: 6.6%
COc1ccccc1N1CCN(S(=O)(=O)c2ccc3c4c(cccc24)C(=O)N3)CC1 | inconclusive: 17.8 µM [quencher, side channel, partial curve] | 
COc1ccc(C(=O)CNc2cccc(F)c2)cc1 |  | inactive: -14.9%
COc1ccc(Cl)cc1NC(=O)CCCC(=O)c1ccccc1 | inconclusive: 35.5 µM [inhibitor, single point] | 
